No constants are given. Whether binding was seen depends on the method and setting. Binding seen in cells or lysates may run through a third protein. Some entries that bind do so weakly or less than the wild type. For part of these data: Where a sequence is shown, tags or fusion partners need not be part of it.
T1: Myc–TRIOBP-4 (UniProt Q99KW3)
T1 sequence: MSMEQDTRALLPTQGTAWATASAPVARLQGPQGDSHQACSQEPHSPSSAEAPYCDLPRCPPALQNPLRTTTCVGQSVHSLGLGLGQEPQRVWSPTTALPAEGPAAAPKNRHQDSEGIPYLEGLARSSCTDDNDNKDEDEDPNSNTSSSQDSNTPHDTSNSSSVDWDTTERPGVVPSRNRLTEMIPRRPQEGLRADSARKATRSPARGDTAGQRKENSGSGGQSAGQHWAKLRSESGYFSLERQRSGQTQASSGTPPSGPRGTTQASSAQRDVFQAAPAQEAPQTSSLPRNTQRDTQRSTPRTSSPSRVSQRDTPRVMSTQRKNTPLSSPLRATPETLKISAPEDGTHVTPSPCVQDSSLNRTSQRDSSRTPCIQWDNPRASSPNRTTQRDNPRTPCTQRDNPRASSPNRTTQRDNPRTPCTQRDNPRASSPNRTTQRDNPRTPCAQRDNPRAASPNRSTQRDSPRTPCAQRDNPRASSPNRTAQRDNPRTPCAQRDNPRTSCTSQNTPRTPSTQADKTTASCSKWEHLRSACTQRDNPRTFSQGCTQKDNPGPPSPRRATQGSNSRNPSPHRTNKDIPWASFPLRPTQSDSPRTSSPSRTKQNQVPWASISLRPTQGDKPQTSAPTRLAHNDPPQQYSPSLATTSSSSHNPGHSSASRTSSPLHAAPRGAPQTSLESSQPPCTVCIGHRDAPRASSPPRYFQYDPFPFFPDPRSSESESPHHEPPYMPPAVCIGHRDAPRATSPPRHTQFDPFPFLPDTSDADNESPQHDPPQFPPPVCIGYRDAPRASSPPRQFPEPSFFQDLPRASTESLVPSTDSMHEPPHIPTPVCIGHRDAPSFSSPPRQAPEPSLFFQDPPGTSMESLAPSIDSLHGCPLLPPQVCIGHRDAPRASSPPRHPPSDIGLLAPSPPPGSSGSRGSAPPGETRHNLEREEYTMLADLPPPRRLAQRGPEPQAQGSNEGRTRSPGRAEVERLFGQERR

Chains of the proteins cited; added tags and fusions are not shown. Lines headed by an entry give the natural chain unless they say otherwise; changes in a name come on top. Residues count along the entry.
UniProt Q80VM7: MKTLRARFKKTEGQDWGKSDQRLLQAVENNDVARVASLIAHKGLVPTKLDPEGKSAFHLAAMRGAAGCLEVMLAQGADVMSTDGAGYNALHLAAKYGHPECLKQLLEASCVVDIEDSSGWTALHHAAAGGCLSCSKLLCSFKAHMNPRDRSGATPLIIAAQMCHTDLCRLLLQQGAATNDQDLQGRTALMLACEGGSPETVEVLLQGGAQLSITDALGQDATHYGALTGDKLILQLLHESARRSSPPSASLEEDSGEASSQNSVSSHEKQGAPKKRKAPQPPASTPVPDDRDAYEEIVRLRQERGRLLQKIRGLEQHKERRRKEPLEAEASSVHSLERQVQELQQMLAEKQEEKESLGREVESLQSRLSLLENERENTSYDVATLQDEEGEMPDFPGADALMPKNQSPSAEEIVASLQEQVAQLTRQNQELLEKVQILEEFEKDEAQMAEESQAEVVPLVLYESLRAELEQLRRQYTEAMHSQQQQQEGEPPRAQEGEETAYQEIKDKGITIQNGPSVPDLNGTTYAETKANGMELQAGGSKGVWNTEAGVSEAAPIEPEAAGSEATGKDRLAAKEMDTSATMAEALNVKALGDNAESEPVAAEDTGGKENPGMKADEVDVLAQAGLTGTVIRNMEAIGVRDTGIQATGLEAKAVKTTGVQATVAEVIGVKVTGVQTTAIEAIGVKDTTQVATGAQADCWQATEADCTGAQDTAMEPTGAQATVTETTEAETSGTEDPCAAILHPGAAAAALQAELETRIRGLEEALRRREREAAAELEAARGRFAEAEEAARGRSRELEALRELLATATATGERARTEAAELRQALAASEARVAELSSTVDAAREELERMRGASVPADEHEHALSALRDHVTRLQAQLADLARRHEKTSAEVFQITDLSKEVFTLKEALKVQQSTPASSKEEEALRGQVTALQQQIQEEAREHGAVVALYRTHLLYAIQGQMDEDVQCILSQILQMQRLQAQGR
ANKRD24 Trunc6-HA: residues 489-985 of Q80VM7

T2: Myc–TRIOBP-1 (UniProt Q99KW3)
T2 sequence: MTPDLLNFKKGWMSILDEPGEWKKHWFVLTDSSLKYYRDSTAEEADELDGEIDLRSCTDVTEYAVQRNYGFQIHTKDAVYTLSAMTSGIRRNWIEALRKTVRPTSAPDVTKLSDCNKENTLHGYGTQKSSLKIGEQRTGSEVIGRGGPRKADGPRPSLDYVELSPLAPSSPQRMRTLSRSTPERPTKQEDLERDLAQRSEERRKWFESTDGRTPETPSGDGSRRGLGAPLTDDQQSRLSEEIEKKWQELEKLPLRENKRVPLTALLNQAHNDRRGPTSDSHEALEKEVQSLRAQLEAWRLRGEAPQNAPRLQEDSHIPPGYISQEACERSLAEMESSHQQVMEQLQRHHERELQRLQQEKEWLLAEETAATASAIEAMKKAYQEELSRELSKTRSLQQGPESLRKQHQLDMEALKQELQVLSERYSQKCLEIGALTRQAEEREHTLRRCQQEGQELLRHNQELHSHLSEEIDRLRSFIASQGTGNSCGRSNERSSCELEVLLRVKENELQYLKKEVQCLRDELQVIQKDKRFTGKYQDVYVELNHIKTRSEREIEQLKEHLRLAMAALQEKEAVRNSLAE


Experiments:
[1] = target: ANKRD24-HA (mouse) (UniProt Q80VM7); assay: co-IP; HEK293 cells transfected with both constructs; lysis in 50 mM Hepes, 150 mM NaCl, 1% Triton X-100, 1 mM EDTA, protease inhibitors; immunoprecipitation with anti-HA agarose beads; immunoblot
[2] = target: ANKRD24 Trunc6-HA (mouse) (UniProt Q80VM7); assay: as above
[3] = target: Myc–TRIOBP-5 (UniProt Q99KW3); assay: co-IP; HEK293 cells transfected with both constructs; immunoprecipitation with anti-Myc, co-IP detected with anti-HA
[4] = target: T1, Myc–TRIOBP-4; assay: as above
[5] = target: T2, Myc–TRIOBP-1; assay: as above

binding [1] | binding [2] | binding [3] | binding [4] | binding [5] | Molecule
binds | binds |  |  |  | ANKRD24-GFP (from UniProt Q80VM7 1-985)
 |  | binds | no binding | binds | ANKRD24-HA (from UniProt Q80VM7 1-985)
no binding |  |  |  |  | TRIOBP-4-GFP (protein, UniProt Q99KW3-5 1-980) MSMEQDTRALLPTQGTAWATASAPVARLQGPQGDSHQACSQEPHSPSSAEAPYCDLPRCPPALQNPLRTTTCVGQSVHSLGLGLGQEPQRVWSPTTALPAEGPAAAPKNRHQDSEGIPYLEGLARSSCTDDNDNKDEDEDPNSNTSSSQDSNTPHDTSNSSSVDWDTTERPGVVPSRNRLTEMIPRRPQEGLRADSARKATRSPARGDTAGQRKENSGSGGQSAGQHWAKLRSESGYFSLERQRSGQTQASSGTPPSGPRGTTQASSAQRDVFQAAPAQEAPQTSSLPRNTQRDTQRSTPRTSSPSRVSQRDTPRVMSTQRKNTPLSSPLRATPETLKISAPEDGTHVTPSPCVQDSSLNRTSQRDSSRTPCIQWDNPRASSPNRTTQRDNPRTPCTQRDNPRASSPNRTTQRDNPRTPCTQRDNPRASSPNRTTQRDNPRTPCAQRDNPRAASPNRSTQRDSPRTPCAQRDNPRASSPNRTAQRDNPRTPCAQRDNPRTSCTSQNTPRTPSTQADKTTASCSKWEHLRSACTQRDNPRTFSQGCTQKDNPGPPSPRRATQGSNSRNPSPHRTNKDIPWASFPLRPTQSDSPRTSSPSRTKQNQVPWASISLRPTQGDKPQTSAPTRLAHNDPPQQYSPSLATTSSSSHNPGHSSASRTSSPLHAAPRGAPQTSLESSQPPCTVCIGHRDAPRASSPPRYFQYDPFPFFPDPRSSESESPHHEPPYMPPAVCIGHRDAPRATSPPRHTQFDPFPFLPDTSDADNESPQHDPPQFPPPVCIGYRDAPRASSPPRQFPEPSFFQDLPRASTESLVPSTDSMHEPPHIPTPVCIGHRDAPSFSSPPRQAPEPSLFFQDPPGTSMESLAPSIDSLHGCPLLPPQVCIGHRDAPRASSPPRHPPSDIGLLAPSPPPGSSGSRGSAPPGETRHNLEREEYTMLADLPPPRRLAQRGPEPQAQGSNEGRTRSPGRAEVERLFGQERR

From paper PMC8859912
